Measured values reported in PubChem BioAssay (Tox21).
Where “and” joins values, the source holds several entries; their conditions need not be identical. Equal values may be shown once. Inconclusive results, whose numbers are uncertain, are shown with a selection of clear calls. For some of these results: No potency is given beside an inconclusive call; the fits are too rough. Calls of active or inactive are those of the source. Unless noted, calls follow the shape of the dose curve; as a rule, active = well fitted curve in the direction sought with a large enough effect in the repeat runs; inconclusive = weak or mixed curves; inactive = no such curve, though single readings can be large; an effect the other way counts as inactive or inconclusive.

Tests used:
[1] = molecular target: Nuclear receptor ROR-gamma (Homo sapiens) (UniProt P51449); assay: qHTS assay to identify small molecule antagonists of the retinoid-related orphan receptor gamma (ROR-gamma) signaling pathway (AID 1159521; also: nearly all actives have a fitted effect of over 50% in size); conditions: Tet-on RORgamma CHO cells, RORE-luciferase, 16 h; series mostly up to 92.4 µM
Procedure, shortened: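 Test compounds were applied to Tet-on RORγ CHO cells 2 h ahead of doxycycline hyclate (1 uM final). Luciferase reporter activity was quantified by luminescence after 16 h at 37 C and 5% CO2.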

[2] = qHTS assay to identify small molecule antagonists of the retinoid-related orphan receptor gamma (ROR-gamma) signaling pathway - cell viability counter screen (AID 1159520); conditions: Tet-on RORgamma CHO cells viability, ATP luminescence, 16 h; series mostly up to 92.4 µM; also: nearly all actives have a fitted effect of over 50% in size
Procedure, shortened: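 Tet-on ROR gamma CHO cells (1,000/well) were plated 4 hr, given compounds in DMSO for 2 hr at 37 C, then induced with 1 uM final doxycycline for 16 hr. Viability was read as ATP by CellTiter-Glo luminescence after 30 min.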

[3] = molecular target: Retinoic acid receptor RXR-alpha (Homo sapiens) (UniProt P19793); assay: qHTS assay to identify small molecule agonists of the RXR signaling pathway (AID 1159527; calls by dose curve; also: nearly all actives have a fitted effect of over 35% in size; as to activation: % is scaled to controls: 0 for no effect and ±100 for the full control effect); conditions: HEK293T RXRa-UAS-bla, beta-lactamase ratio, 16 h
Chain of UniProt P19793 (P19793 whole entry, looked up): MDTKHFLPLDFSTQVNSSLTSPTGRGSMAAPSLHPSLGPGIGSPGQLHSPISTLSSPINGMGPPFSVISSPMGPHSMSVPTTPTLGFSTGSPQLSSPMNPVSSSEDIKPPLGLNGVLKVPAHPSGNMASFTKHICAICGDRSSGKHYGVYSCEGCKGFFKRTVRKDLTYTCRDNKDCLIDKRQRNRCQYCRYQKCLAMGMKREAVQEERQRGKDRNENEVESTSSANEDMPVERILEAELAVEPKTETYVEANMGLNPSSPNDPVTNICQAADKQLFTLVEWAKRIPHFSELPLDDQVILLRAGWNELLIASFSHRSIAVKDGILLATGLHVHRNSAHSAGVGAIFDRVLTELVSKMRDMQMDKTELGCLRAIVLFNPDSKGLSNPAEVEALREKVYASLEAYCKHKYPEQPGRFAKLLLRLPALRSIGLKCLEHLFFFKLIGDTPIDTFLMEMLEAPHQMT
Procedure, shortened: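 Using 9-cis retinoic acid as the reference agonist, chemicals were tested in HEK 293T cells […] for 16 hr; substrate loading lasted 2 hr at room temperature.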

[4] = qHTS assay to identify small molecule agonists of the RXR signaling pathway - cell viability counter screen (AID 1159529); conditions: RXR-alpha-bla HEK293T viability, CellTiter-Glo, 16 h; series mostly up to 76.8 µM; also: nearly all actives have a fitted effect of over 50% in size
Procedure, shortened: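 Compounds dissolved in DMSO were pinned onto HEK 293T cells carrying a beta-lactamase reporter under RXR-alpha control and incubated 16 hr. Cytotoxicity was then quantified by CellTiter-Glo luminescence.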

[5] = qHTS assay to identify small molecule antagonists of the retinoid acid receptor (RAR) signaling pathway - cell viability counter screen (AID 1159551); conditions: C3RL4 cells viability, ATP luminescence (CellTiter-Glo), 6 h; series mostly up to 92.4 µM; also: nearly all actives have a fitted effect of over 35% in size
Procedure, shortened: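 Measured by luminescent ATP detection, viability reflects C3RL4 cells treated 6 h at 37 C with test chemicals in the presence of 1 uM (final) retinol.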

[6] = qHTS assay to identify small molecule agonists of the retinoic acid receptor (RAR) signaling pathway (AID 1159553); conditions: C3RL4 RARE luciferase reporter, agonist, 6 h; activation: at 73.3 µM (top of the series) unless noted
Procedure, shortened: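 6 hr compound exposure (DMSO vehicle) of overnight-plated C3RL4 RARE-luc cells at 37 C; luminescence quantified after 30 min RT with luciferase reagent.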

[7] = activation: at 76.8 µM (top of the series) unless noted
Potency is read from the fitted curve at half-maximal effect; tags tell the direction and shape of the fitted curve or compound fluorescence and quenching.

ClC(Cl)Br
Potency [1]: inconclusive [inhibitor, partial curve, poor fit]

CCCN(CCC)c1c([N+](=O)[O-])cc(C(C)C)cc1[N+](=O)[O-]
Potency [2]: inconclusive [cytotoxic, partial curve, poor fit]
activation [3, 7]: inconclusive: -29.1%
activation ([3]; at 76.8 µM (top of the series)): inactive: -24.8%
Potency [4]: inconclusive [cytotoxic, full curve]

c1ccc2c(c1)CCNC2
Potency [1]: inactive

Cc1ccc(N)cc1
Potency [1]: inactive

Oc1c(Cl)c(Cl)cc(Cl)c1Cl
Potency [2]: inconclusive [cytotoxic, partial curve, poor fit]
Potency [3, 7]: inconclusive [rising, partial curve, poor fit]

c1ccc2c(c1)OCC(C1=NCCN1)O2 (stereo unspecified)
Potency [2]: inactive
Potency [3, 7]: inconclusive [inhibitor, full curve]
Potency [4]: inconclusive [cytotoxic, single point]
Potency [5]: inconclusive [rising, partial curve]

O=C(CCN1CC1)OCC(CO)(COC(=O)CCN1CC1)COC(=O)CCN1CC1
Potency [1]: inactive

COC(=O)Nc1cccc(OC(=O)Nc2cccc(C)c2)c1
Potency [2]: inactive
Potency [6]: active: 8.63 µM and active: 19.3 µM
